In all, about 52,000 compounds went through this assay and about 1,700 (3.3%) were called active. Rule as the data show it: active = survival mostly below about 52% (no sharp cut-off); inactive = mostly above about 56%. Some of the results follow.

The assay has as its system Wild type. Briefly: growth inhibition of S. aureus wild type versus tarO mutant, primary screen, teichoic acid synthesis inhibitors, RN4220, OD600 (AID 463173). The following applies: S. aureus RN4220 wild type/DeltatarO growth, OD600, 18 h, stronger effect = lower value, screened at 18.75 µg/mL (by protocol).
As to `C=CCSc1nnc(Cn2cnc3ccccc32)n1C`, the survival was inactive: 102%. Turning to `CCOc1ccc(CNC(=O)Cc2ccc(NC(=O)N3CCCCc4ccccc43)cc2)cc1OC`, the survival is inactive: 77%. With `CC(C)(C)c1ccc(C(=O)N2CCN(Cc3cc(=O)n4nc(-c5ccccc5F)sc4n3)CC2)cc1` the figure was inactive: 74%; with `Cc1ccc(NC(=O)C2CCC(CNS(=O)(=O)c3ccc4c(c3)C(C)(C)C(=O)N4C)CC2)cc1` (stereo not drawn), inactive: 94%; with `Cc1cc(=O)oc2cc(OCC(=O)Nc3c(C(C)C)cccc3C(C)C)ccc12`, inactive: 81%. Regarding `Clc1ccc(-c2nnn3c2nc(NCc2ccc4c(c2)OCO4)c2ccccc23)cc1`, the survival was inactive: 94%. Then `O=C(CSc1nc(-c2ccccc2)cc(C(F)(F)F)n1)NCCN1CCOCC1`, with inactive: 102%. With `COc1cc(OC)c(NC(=O)Cn2cnc3nc4c(cc3c2=O)CCCC4)cc1Cl` the figure was active: -6%. Take `Cc1cc(C)c(NC(=O)Nc2csc3c2CCCC3)c(C)c1`: the survival was inactive: 80%. On to `COc1cc(NC(=O)CCNC(=O)Cn2cnc3ccccc3c2=O)cc(OC)c1OC`, for which the survival was inactive: 66%. `COc1ccc(CCn2c(=O)c3cccnc3n(CC(=O)Nc3c(C)cc(C)cc3C)c2=O)cc1OC`: the survival is inactive: 85%. Turning to `CCCc1cc(N2CCN(c3ccc(OC)cc3)CC2)n2cnnc2n1`, the survival is inactive: 81%. Take `Cc1ccc2nc3sc(C#N)c(N)c3cc2c1`: the survival was inactive: 103%. As to `O=C(CCCCCn1c(=O)[nH]c2ccccc2c1=O)NCc1ccc(Cl)cc1`, the survival is inactive: 80%. In the case of `CCC(=O)N1CCc2cc(Br)cc(S(=O)(=O)NCc3ccccc3)c21`, the survival is inactive: 85%. On to `CSc1ccc(CCNC(=O)C2CCN(c3ncnc4c3nc3n4CCCCC3)CC2)cc1`, for which the survival is inactive: 71%. On to `COc1ccccc1-c1nc(SCC(=O)Nc2ccc(C)c(C)c2)n[nH]1`, for which the survival was inactive: 45%. Take `Fc1ccc(-n2ncc3c(N4CCN(c5ccccc5F)CC4)ncnc32)cc1`: the survival was inactive: 117%.

For the compound `CCN(CC)C(=O)COc1ccc(-c2nnc(Nc3ccc(OC)c(C(=O)NC)c3)c3ccccc23)cc1`, the survival is inactive: 81%. `Cc1sc2ncn(CC(=O)N(C)c3cccc(C(F)(F)F)c3)c(=O)c2c1S(=O)(=O)N1CCN(c2ncccn2)CC1`: the survival was inactive: 148%. As to `Cc1cc(=O)oc2c3c(ccc12)OCN(Cc1ccc(Cl)cc1)C3`, the survival was inactive: 65%. Regarding `CCn1nc(C)c2c(-c3ccccc3)cc(=O)n(C(C)C(=O)NCCc3ccccc3)c21` (stereo not drawn), the survival was inactive: 73%. With `CCc1nn2c(=O)cc(COC(=O)c3ccccc3NC(=O)c3cccs3)nc2s1`, the survival was inactive: 82%. Turning to `O=C(CCn1ccc2cc(S(=O)(=O)N3CCCC3)ccc21)NCc1ccccc1Cl`, the survival was active: 14%. Consider `O=C(NCCc1ccc(Cl)cc1)c1ccc2c(c1)N(Cc1cccc(Cl)c1)C(=O)c1ccccc1S2(=O)=O`, for which the survival is inactive: 121%. As for `Fc1ccccc1Nc1ncnc2c1nc1n2CCCCC1`, the survival was inactive: 74%.

With `Cc1cccc(CCNC(=O)c2c[nH]c3ccc(S(=O)(=O)Nc4ccccc4F)cc3c2=O)c1`, the survival is inactive: 138%.

On to `COc1ccc(CNC(=O)C(OC(=O)c2ccc(Cl)nc2)c2ccccn2)cc1` (stereo not drawn), for which the survival is inactive: 107%. Consider `COc1cccc(-c2nnc3sc(CN4CCCCC4)cn23)c1`, for which the survival was inactive: 68%.

Take `CCC1CCCCN1C(=O)Cn1c(=O)n(CCCCCC(=O)NCc2ccccc2Cl)c(=O)c2sccc21` (stereo not drawn): the survival was inactive: 93%. As to `COC(=O)c1ccc(NC(=O)CC2C(=O)N(c3cccc(C)c3)C(=O)N2C2CCCC2)cc1` (stereo not drawn), the survival is inactive: 136%. On to `O=C(CCCc1ccccc1)NCC1CCCO1` (stereo not drawn), for which the survival was inactive: 107%. Turning to `O=C(CSc1nc2ccccc2c(=O)[nH]1)NC1CCCC1`, the survival is inactive: 103%.

As for `O=C(CSc1cn(CCNC(=O)c2ccccc2F)c2ccccc12)Nc1ccc(F)cc1`, the survival was inactive: 64%. Take `COc1cccc(N2C(=O)CSC23C(=O)N(CC(=O)Nc2cccc(Cl)c2)c2ccccc23)c1` (stereo not drawn): the survival is inactive: 70%.

Take `CCCn1c(=O)c(C(=O)Nc2nccs2)c(O)c2ccccc21`: the survival was inactive: 97%. Take `COc1cccc(-n2c(-c3ccco3)nc3c(cnn3-c3ccc(Cl)cc3)c2=O)c1`: the survival was inactive: 106%.

Turning to `CCn1c(C)c(C)c2cc(C(=O)N3CCN(c4cccc(C)c4C)CC3)ccc21`, the survival is inactive: 71%. As for `COc1cc(CN(C(=O)COc2ccccc2Cl)c2ccccn2)cc(OC)c1OC`, the survival was inactive: 94%.

Take `Cc1ccc(C(=O)CSc2ncn(-c3ccccc3)n2)c(C)c1`: the survival was inactive: 115%.

`CCC(=O)Nc1ccc2nc(SCc3ccccc3)sc2c1`: the survival was inactive: 74%. Then `CCOc1ccc(-n2c(=O)c3c4c(sc3n(CC(=O)NC(C)CC)c2=O)CCC4)cc1` (stereo not drawn), with inactive: 130%. With `O=S(=O)(c1ccc(Cl)cc1)c1nnn2c1nc(NCc1cccs1)c1sccc12` the figure was inactive: 75%; with `COc1ccc(CC(=O)Nc2cc(-c3nc4cccnc4s3)ccc2C)cc1`, inactive: 90%; with `CCOC(=O)c1ccc(N2C(=O)c3n[nH]c(-c4cccs4)c3C2c2cccc(OC)c2)cc1` (stereo not drawn), inactive: 89%. Then `CN(C)S(=O)(=O)N(CC(=O)NCCSCc1cccc(Cl)c1)c1ccccc1`, with inactive: 76%. For the compound `CCC(CC)C(=O)N1CCc2cc(OC)c(OC)cc2C1COc1ccc(C(=O)OC)cc1` (stereo not drawn), the survival is inactive: 89%. Consider `COc1ccc(C)cc1NC(=O)CSc1nc(=O)[nH]c2c1CCCC2`, for which the survival is inactive: 128%. With `CCOc1ccc(-n2cc(-c3ccccc3)c3c(N4CCC(C)CC4)ncnc32)cc1` the figure was inactive: 72%. As to `CCOc1ccccc1NC(=O)C(=O)c1cc(C)n(-c2ccc(F)cc2)c1C`, the survival is inactive: 113%. With `COc1ccc(-c2nnc(Nc3ccc(OC)c(C(N)=O)c3)c3ccccc23)cc1` the figure was inactive: 67%; with `CCS(=O)(=O)c1nc(S(=O)(=O)c2ccc(C)cc2)c(NC(C)c2ccccc2)s1` (stereo not drawn), inactive: 136%.

`O=C(NCc1ccccc1)NC1(C(=O)NCC2CCCO2)CCCCC1` (stereo not drawn): the survival is inactive: 108%. In the case of `Cc1ccc(Nc2c(-c3ccc(C)cc3)nc3ccc(C)cn23)cc1`, the survival is inactive: 121%. Take `Cc1cc(C)cc(Nc2ncnc3onc(-c4ccc(F)cc4)c23)c1`: the survival is inactive: 82%. Take `Cc1ccc(S(=O)(=O)c2nc(-c3ccc(F)cc3)oc2SCC(=O)c2ccccc2)cc1`: the survival is inactive: 69%. For the compound `CCc1ccc2oc(-c3cccc(NC(=O)C(C)(C)Oc4ccc(Br)cc4)c3)nc2c1`, the survival was inactive: 21%.

Consider `COc1cccc(-n2c(SCC(=O)N3CCCc4ccccc43)nc3c([nH]c4ccccc43)c2=O)c1`, for which the survival was inactive: 66%.

Consider `CCc1ccc(S(=O)(=O)NCc2nc3cccnc3n2Cc2ccccc2Cl)cc1`, for which the survival was inactive: 83%.

Take `CCn1c(COc2ccc(C)cc2)nnc1SCC(=O)N1CCCc2ccccc21`: the survival is inactive: 123%. `CCCOc1ccc(CNC(=O)Cn2cc3c(n2)-c2c(oc(C(=O)N4CCOCC4)c2C)CC3)cc1`: the survival is inactive: 96%. As to `O=C(c1ccc2c(c1)CCCC2)N1CCN(c2nc3ccc(F)cc3s2)CC1`, the survival is inactive: 83%. `CCOc1ccc(CNC(=O)c2cc3c(s2)-c2ccccc2OC3)cc1`: the survival is inactive: 91%.

In the case of `CC1(C)OC(c2ccncc2)OC1(C)C`, the survival was inactive: 134%. Turning to `COc1ccc(Cl)cc1NC(=O)Cn1c(=O)n(CCCC(=O)NCCc2ccc(OC)c(OC)c2)c(=O)c2ccccc21`, the survival was inactive: 79%. Then `O=C(CCSCc1cccc(F)c1)NCc1ccccc1`, with inactive: 86%. Regarding `CCOc1ccc2nc(SCC(=O)N(C)C3CCCCC3)c(C#N)cc2c1`, the survival was inactive: 106%. As for `CC(C)CNC(=O)C1CCN(S(=O)(=O)c2ccc(-n3cnnn3)cc2)CC1`, the survival was inactive: 110%. With `CCN1CCN(c2c(S(=O)(=O)c3ccc(Cl)cc3)cnc3ccccc23)CC1`, the survival is inactive: 82%.

Turning to `Cc1ccc(NC(=O)Cn2c(=O)n(CCCS(=O)(=O)C3CCCCC3)c(=O)c3ccccc32)cc1F`, the survival is inactive: 84%. For the compound `CC(NC(=O)c1ccc(Cn2c(=O)c3cccn3c3cccnc32)cc1)c1ccccc1` (stereo not drawn), the survival was inactive: 108%. Take `COc1ccc(S(=O)(=O)c2cc3cc(OC)ccc3oc2=O)cc1`: the survival is inactive: 76%.

Take `COC(=O)C1=NNC2C(=O)N(c3cc(C)cc(C)c3)C(=O)C12` (stereo not drawn): the survival was inactive: 105%. For `CCc1ccccc1NC(=O)N1CCc2cc(OC)c(OC)cc2C1CC(=O)OC` (stereo not drawn), the survival was inactive: 127%. For `Cc1ccc(C)c(Nc2nc3c(S(=O)(=O)c4ccc(Br)cc4)nnn3c3ccsc23)c1`, the survival was inactive: 45%. On to `Cn1c(=O)c2c(-c3ccccc3Cl)n(Cc3ccc(Cl)cc3)cc2n(C)c1=O`, for which the survival was inactive: 54%. On to `Cc1cccc(N2CCN(C(=O)CCC(=O)NNc3nc4ccccc4c4nc(C)nn34)CC2C)c1` (stereo not drawn), for which the survival is inactive: 92%. For `CCc1ccccc1NC(=O)CN1C(=O)COc2ccc(S(=O)(=O)Nc3ccccc3)cc21`, the survival is inactive: 64%.

Regarding `CC1NC(=O)NC2NC(=O)NC(C)C12` (stereo not drawn), the survival is inactive: 118%. Then `COc1cc(C2c3c(-c4c(C)cc(C)cc4O)n[nH]c3C(=O)N2CCCOC(C)C)cc(OC)c1OC` (stereo not drawn), with inactive: 99%.

For the compound `COc1ccccc1Cc1nc2ccccc2nc1SCC(=O)Nc1ccccc1C(F)(F)F`, the survival is inactive: 77%. In the case of `COc1ccc(-c2nc3c(C#N)c[nH]n3c2NC2CCCC2)cc1`, the survival is inactive: 70%. For `CNC(=O)Nc1ccc2nc(C)sc2c1`, the survival is inactive: 112%. With `Cc1ccc(N2CC(c3nnc(Cc4ccccc4Cl)o3)CC2=O)cc1` (stereo not drawn), the survival was inactive: 39%.

With `CCOc1ccc(CNCc2c(C(=O)O)n(Cc3ccc(OC)cc3)c3ccccc23)cc1`, the survival is inactive: 82%.

For the compound `COc1ccc(N(C(=O)c2ccc(Cl)cc2)S(=O)(=O)c2ccc(C)cc2)cc1`, the survival was inactive: 81%. Regarding `COc1ccc(S(=O)(=O)n2nc(-c3ccco3)nc2NCc2ccc(OC)c(OC)c2)cc1`, the survival is inactive: 81%. As for `C/C=C/NC(=O)c1nc2c(nnn2Cc2ccc(C)cc2)c(=O)[nH]1`, the survival is inactive: 99%.
